Measurements published in PubChem BioAssay AID588591 (National Center for Advancing Translational Sciences (NCATS), 2011).
Among all 390,000 compounds or so, about 4,700 (1.2%) were called active. Inconclusive means that the source gave no clear call. Such entries were picked first, then a sample of the others. The call rests on the fitted dose curve; in most records, active means well fitted inhibition curve with a large enough effect; inconclusive means small, poorly fitted or top-dose-only effect, or another doubt; inactive means no such curve, though single readings can be large or run the other way. Potencies beside an inconclusive call are fits to weak or partial responses and may not hold up.

Each compound was assayed against DNA polymerase eta (Homo sapiens) (UniProt Q9Y253) (assay: qHTS for Inhibitors of Polymerase Eta). Conditions: recombinant Pol eta, fluorescent DNA replication assay; series mostly up to 114 µM; activity change, negative = inhibition: at the top concentration.
Procedure, shortened: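 Fluorescent replication assay: 50 nM final substrate added after a 15 min room-temperature compound preincubation with 10 nM enzyme. Signal taken at 0 min and again at 10 min.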
On the % scale 0 is the no-effect control and ±100 the full control effect; potency means the concentration at half of the fitted maximal effect; tags describe the fitted curve by direction and shape.

Chain of UniProt Q9Y253 (Q9Y253 whole entry, looked up): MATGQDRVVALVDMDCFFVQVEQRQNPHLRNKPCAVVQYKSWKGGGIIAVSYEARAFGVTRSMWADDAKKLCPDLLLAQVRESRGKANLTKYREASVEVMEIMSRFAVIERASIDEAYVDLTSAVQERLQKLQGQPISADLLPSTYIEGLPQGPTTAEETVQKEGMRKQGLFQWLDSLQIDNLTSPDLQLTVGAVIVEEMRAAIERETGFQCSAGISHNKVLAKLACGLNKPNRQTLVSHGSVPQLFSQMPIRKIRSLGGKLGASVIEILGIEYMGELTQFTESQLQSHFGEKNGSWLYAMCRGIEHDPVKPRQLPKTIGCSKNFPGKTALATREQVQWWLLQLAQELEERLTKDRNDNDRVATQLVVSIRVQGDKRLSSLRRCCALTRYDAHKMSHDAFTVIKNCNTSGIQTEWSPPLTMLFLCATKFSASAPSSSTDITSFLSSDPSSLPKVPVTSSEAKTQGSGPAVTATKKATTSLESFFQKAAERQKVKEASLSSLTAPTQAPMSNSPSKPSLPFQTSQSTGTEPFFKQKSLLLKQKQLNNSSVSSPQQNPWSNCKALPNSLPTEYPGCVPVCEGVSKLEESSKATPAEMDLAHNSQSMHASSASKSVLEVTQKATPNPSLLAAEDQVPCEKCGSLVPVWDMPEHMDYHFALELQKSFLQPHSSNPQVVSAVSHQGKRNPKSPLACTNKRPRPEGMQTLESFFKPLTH

| SMILES | activity change, negative = inhibition | Potency |
| --- | --- | --- |
| COc1ccccc1COc1ccc2c(C)c(CCC(=O)O)c(=O)oc2c1C | inactive: -23.2% | – |
| COc1cc(/C=N/NC(=O)c2ccc(N(C)S(=O)(=O)c3ccccc3)cc2)cc(OC)c1OC | – | inconclusive: 25.1 µM [inhibitor, partial curve, poor fit] |
| CCOc1cc(C(=O)OCC(=O)Nc2ncc(Cl)c(C)c2Cl)ccc1OCC(=O)N1CCOCC1 | – | inconclusive: 22.4 µM [inhibitor, partial curve, poor fit] |
| Cc1ccccc1CS(=O)(=O)c1ncc(Cl)c(C(=O)Nc2nnc(C(C)C)s2)n1 | – | inconclusive: 89.1 µM [inhibitor, single point] |
| O=C(O)CCCCC1CCSS1 (stereo not drawn) | inactive: -0.173% | – |
| O=C(Nc1ccccc1N1CCCCC1)C1CCN(S(=O)(=O)c2ccccc2C(F)(F)F)CC1 | – | inconclusive: 56.2 µM [inhibitor, partial curve, poor fit] |
| O=C(NNc1c2ccccc2nc2ccccc12)c1ccc(O)cc1O | – | inconclusive: 14.1 µM [inhibitor, full curve] |
| Cc1c(C(=O)O)sc2nc(/C=C/c3ccccc3OC(F)F)[nH]c(=O)c12 | – | inconclusive: 56.2 µM [inhibitor, partial curve, poor fit] |
| COc1ccc(C(=O)CCC(=O)Nc2cccnc2)cc1OC | inactive: -16.6% | – |
| Cc1ccsc1/C=C1\Oc2cc(OCC(=O)c3ccccc3)ccc2C1=O | – | inconclusive: 2.51 µM [inhibitor, full curve, poor fit] |
| CC(C)N1CCC2(CC1)N=C(c1ccc3c(c1)OCO3)CC(c1cc(Cl)ccc1O)N2 (stereo not drawn) | – | inconclusive: 12.6 µM [inhibitor, full curve, poor fit] |
| Oc1cc2c(c(Cl)c1O)CCNCC2c1ccccc1 (stereo not drawn) | – | inconclusive: 44.7 µM [inhibitor, single point] |
| Cc1csc(N/N=C/c2ccc(O)c([N+](=O)[O-])c2)n1 | – | active: 7.08 µM |
| CN(C)S(=O)(=O)c1ccc(NC(=O)Cc2ccc(S(=O)(=O)N3CCOCC3)s2)cc1 | – | active: 56.2 µM |
| CN(C)c1ccc(NC(=O)CSC2=Nc3ccccc3C3=NC(CC(=O)NCc4ccc5c(c4)OCO5)C(=O)N23)cc1 (stereo not drawn) | – | inconclusive: 100 µM [inhibitor, partial curve, poor fit] |
| COc1ccc(Cl)cc1NC(=O)c1c(NCc2cccs2)sc2c1CCCC2 | – | active: 50.1 µM |
| COc1ccc(Oc2ccc(/C=C/C(=O)c3ccc(O)cc3)cc2[N+](=O)[O-])cc1 | – | inconclusive: 25.1 µM [inhibitor, partial curve, poor fit] |
| O=C(O)C1CC=CCC1C(=O)Nc1cc(Cl)ccc1Cl (stereo not drawn) | – | inconclusive: 31.6 µM [inhibitor, partial curve, poor fit] |
| N#C/C(=C\c1ccc(-c2ccc(Cl)c(C(=O)O)c2)o1)c1nc2ccccc2[nH]1 | – | active: 22.4 µM |
| CCN(CC)Cc1cc(C(C)(C)C)cc(N2CCOCC2)c1O | inactive: -11.5% | – |
| Cc1nnc(N2CCN(c3ccccc3)CC2)[nH]c1=O | inactive: -20.9% | – |
| CN(CC(=O)Nc1ccc(F)cc1)C(=O)c1cc(-c2ccco2)nc2ccccc12 | – | active: 39.8 µM |

| SMILES | activity change, negative = inhibition | Potency |
| --- | --- | --- |
| COc1cccc(C(=O)N2CCN(C3CCC(c4ccccc4)CC3)CC2)c1 (stereo not drawn) | – | inconclusive: 2.24 µM [inhibitor, full curve, poor fit] |
| CNc1ccc(C(=O)OCC(=O)NC(=O)NC2CCCC2)cc1[N+](=O)[O-] | – | inconclusive: 100 µM [inhibitor, partial curve, poor fit] |
| O=C(N/N=C/c1coc2ccccc2c1=O)c1cn(-c2ccccc2)nc1-c1ccccc1 | – | inconclusive: 12.6 µM [inhibitor, partial curve] |
| O=C(O)CCCCN1C(=O)/C(=C\c2ccc(OCc3ccccc3)c(OCc3ccccc3)c2)SC1=S | – | active: 20 µM |
| O=c1cc(CCl)nc2sc3ccccc3n12 | – | active: 50.1 µM |
| Cc1ccc(OCc2cc(C(=O)N3CCC(C(O)C(C)C)CC3)no2)cc1C (stereo not drawn) | – | inconclusive: 31.6 µM [inhibitor, partial curve, poor fit] |
| COc1ccc(N2CCN(C(=O)NC3CCCCC3)CC2)cc1 | – | inconclusive: 89.1 µM [inhibitor, single point] |
| O=C(O)c1ccc(-n2cccc2/C=C2/NC(=O)N(c3cccc(Cl)c3)C2=O)cc1 | – | active: 3.55 µM |
| CCCn1nc(C(=O)NCC2COc3ccccc3O2)c2ccccc2c1=O (stereo not drawn) | – | inconclusive: 100 µM [inhibitor, single point] |
| O=C1N/C(=N/Nc2ccccc2)S/C1=C\c1ccccc1 | – | inconclusive: 25.1 µM [inhibitor, partial curve, poor fit] |
| CN(Cc1ccccc1)c1nc(CN2CCOCC2)nc2scc(-c3ccccc3)c12 | – | inconclusive: 79.4 µM [inhibitor, partial curve, poor fit] |
| CNS(=O)(=O)c1cccc(C(=O)OCc2cc(=O)n3cc(Br)ccc3n2)c1 | – | inconclusive: 25.1 µM [inhibitor, single point] |
| O=C(NN=Cc1ccccc1OC(F)F)c1ccc(NS(=O)(=O)c2cccs2)cc1 | – | inconclusive: 25.1 µM [inhibitor, partial curve, poor fit] |
| COc1cc(O)c(C(CC(=O)N2CCCCC2)c2ccc3c(c2)OCO3)c(OC)c1 (stereo not drawn) | inactive: -11% | – |
| COc1ccc(-c2onc(C)c2C)cc1S(=O)(=O)NCc1ccc(C)o1 | inactive: -13.8% | – |
| O=C(Nc1ccccc1)C1=C[C@H](c2ccccc2)C[C@H](OCCCCO)O1 | inactive: -10.2% | – |
| O=C(N/N=C/c1cccnc1)c1cccc(NC(=O)c2ccc(Cl)cc2)c1 | – | inconclusive: 20 µM [inhibitor, partial curve, poor fit] |
| CC(=O)N(C1=C(N)C(=O)c2ccccc2C1=O)C(C)C | inactive: 2.84% | – |
| N#CC1=C2SCN(C3CCCCC3)CN2C(=O)CC1c1c(F)cccc1Cl (stereo not drawn) | – | inconclusive: 89.1 µM [inhibitor, single point] |
| CCc1ccc(Sc2cc(C(=O)O)c3ccccc3n2)cc1 | inactive: -8.26% | – |
| O=C1N=C(N2CCN(c3ccccc3)CC2)S/C1=C\c1ccco1 | – | inconclusive: 79.4 µM [inhibitor, partial curve] |
